# Measured values reported in PubChem BioAssay (Tox21).
# Results filed as inconclusive are left out. The call rests on the fitted dose curve; in most records, active means well fitted curve in the direction sought with a large enough effect in the repeat runs; inconclusive means weak or mixed curves; inactive means no such curve, though single readings can be large; an effect the other way counts as inactive or inconclusive. Where a structure was tested more than once in an assay, its records may differ in their call. Not every entry of the source has a single result; some have several. The other results are left out here. The source may hold further records. Values given together repeat one measurement in other runs, samples, wells, individuals or studies. Brackets tell where a record comes from. Letters count within one entry.
# Columns and labels:
# [1] = qHTS RealTime-Glo MT Cell Viability Assay in HEK293 cells - 0 hour (AID 1224880); further: nearly all actives have a fitted effect of over 45% in size
# How it was run: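 Cells were seeded together with NanoLuc luciferase and a prosubstrate that viable cells reduce to a luciferase substrate. After a 5 h incubation at 37 C/5% CO2, compounds were added and luminescence was measured repeatedly during 40 h of treatment.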
# [2] = qHTS assay to identify small molecule antagonists of the thyroid receptor (TR) signaling pathway (AID 743065); further: nearly all actives have a fitted effect of over 55% in size
# How it was run: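 GH3.TRE-Luc rat pituitary cells carrying two TR response elements driving luciferase were plated for 4 h, given compound plus 1 nM T3 (final), and incubated 23.5 h at 37 C. ONE-Glo luminescence measured reporter inhibition; CellTiter-Fluor fluorescence tracked cytotoxicity.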
# [3] = A CellTox Green Cytotoxicity Assay to monitor cytotoxicity in HEK293 cells - 16 hour (AID 1224888); further: nearly all actives have a fitted effect of over 35% in size
# How it was run: (§1)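 Nonlytic real-time cytotoxicity: HEK293 + CellTox Green reagent plated, 5 h preincubation, pintool compound addition (23 nL in DMSO), 37 C for 40 h, fluorescence measured at successive time points.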
# [4] = A CellTox Green Cytotoxicity Assay to monitor cytotoxicity in HEK293 cells - 24 hour (AID 1224875); further: nearly all actives have a fitted effect of over 45% in size
# How it was run: as §1
# [5] = qHTS assay to identify small molecule antagonists of the progesterone receptor (PR) signaling pathway - cell viability counter screen (AID 1346798); further: nearly all actives have a fitted effect of over 50% in size
# How it was run: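 Following a 4 hr attachment, PR-UAS-bla HEK293T cells in charcoal-stripped FBS medium were exposed to compounds with R5020 for 16 hr; CellTiter-Glo was added and luminescence read after 30 min at room temperature.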
# [6] = qHTS assay to identify small molecule agonists of the constitutive androstane receptor (CAR) signaling pathway - cell viability counter screen (AID 1224836); further: nearly all actives have a fitted effect of over 45% in size
# How it was run: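 Using CellTiter-Fluor, viability of HepG2 cells harbouring hCAR and CYP2B6-2.2kb was measured following 23 h incubation with a 15-concentration compound series plus PK11195 (0.75 uM final).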
# [7] = qHTS assay to identify small molecule antagonists of the constitutive androstane receptor (CAR) signaling pathway - cell viability counter screen (AID 1224837); further: nearly all actives have a fitted effect of over 45% in size
# How it was run: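 HepG2-CYP2B6-hCAR cells, 2500/well, 4 hr pre-incubation; compound titration, 15 conc.; CITCO 50 nM final; 23 hr, 37 C/5% CO2; CellTiter-Fluor, fluorescence intensity.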
# [8] = qHTS assay to identify small molecule antagonists of the peroxisome proliferator-activated receptor gamma (PPARg) signaling pathway - cell viability counter screen (AID 743194); further: nearly all actives have a fitted effect of over 55% in size
# How it was run: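 PPARg-UAS-bla HEK293H cells were plated, rested 5 h at 37 C, then treated with compounds plus rosiglitazone (50 nM final) for 17 h at 37 C; viability was then read by CellTiter-Glo luminescence after 30 min at room temperature.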
# [9] = qHTS assay to identify small molecule antagonists of the glucocorticoid receptor (GR) signaling pathway - cell viability counter screen (AID 720693); further: nearly all actives have a fitted effect of over 55% in size
# Potency means the concentration at half of the fitted maximal effect.
smiles,measurement,setting,value
CC1(C)O[C@@H]2C[C@H]3[C@@H]4C[C@H](F)C5=CC(=O)C=C[C@]5(C)[C@@]4(F)[C@@H](O)C[C@]3(C)[C@]2(C(=O)CO)O1,Potency,[1],active: 19.5 µM [sample A] and inactive [sample B]
CC1=CC(C)(C)Nc2ccccc21,Potency,[2],inactive [sample A] and active: 29.8 µM [sample B]
Cc1ccc(C(C)(C)C)c(O)c1,Potency,[3],active: 23.8 µM [sample A] and inactive [sample B]
C1CN(SSN2CCOCC2)CCO1,Potency,[4],active: 48.5 µM [sample A] and inactive [sample B]
O=C1CCc2ccccc2O1,Potency,[4],inactive [sample A] and active: 21.9 µM [sample B]
O=C(O)c1cc(=O)[nH]c(=O)[nH]1,Potency,[5],inactive [sample A] and active: 26.6 µM [sample B]
Nc1ccc(N)c(Cl)c1,Potency,[4],inactive [sample A] and active: 38.9 µM [sample B]
same,Potency,[3],inactive [sample A] and active: 38.9 µM [sample B]
Cc1ccc([N+](=O)[O-])c(C)c1,Potency,[6],active: 13.7 µM [sample A] and inactive [sample B]
same,Potency,[7],active: 12.2 µM [sample A] and inactive [sample B]
same,Potency,[5],active: 24.3 µM [sample A] and inactive [sample B]
O=C(CCCN1CCC(O)(c2ccc(Cl)cc2)CC1)c1ccc(F)cc1,Potency,[4],active: 49 µM [sample A] and inactive [sample B]
same,Potency,[3],active: 49 µM [sample A] and inactive [sample B]
O=Cc1ccccc1C=O,Potency,[8],active: 27.5 µM [sample A] and inactive [sample B]
same,Potency,[6],active: 61.1 µM [sample A] and inactive [sample B]
same,Potency,[7],active: 61.1 µM [sample A] and inactive [sample B]
COc1cc([C@H]2Oc3cc([C@H]4Oc5cc(O)cc(O)c5C(=O)[C@@H]4O)ccc3O[C@@H]2CO)ccc1O,Potency,[4],inactive [sample A] and active: 16.9 µM [sample B]
same,Potency,[3],inactive [sample A] and active: 16.9 µM [sample B]
CC/C(=C(/CC)c1ccc(O)cc1)c1ccc(O)cc1,Potency,[9],inactive [sample A] and active: 48.6 µM [sample B] and active: 54.9 µM [sample C]
CC(C)(C)c1cccc(C(C)(C)C)c1O,Potency,[4],active: 53.7 µM [sample A] and inactive [sample B]
